Measured values taken from the BET-seq Pho4 binding data (Le et al. 2018).
This is one part of the list. Values were computed here from the reads of four pooled replicates and scatter widely.

target: T1, Pho4 (S. cerevisiae) (UniProt P07270); assay: relative binding free energy (BET-seq); higher = weaker binding; conditions: reference: library average
T1 sequence: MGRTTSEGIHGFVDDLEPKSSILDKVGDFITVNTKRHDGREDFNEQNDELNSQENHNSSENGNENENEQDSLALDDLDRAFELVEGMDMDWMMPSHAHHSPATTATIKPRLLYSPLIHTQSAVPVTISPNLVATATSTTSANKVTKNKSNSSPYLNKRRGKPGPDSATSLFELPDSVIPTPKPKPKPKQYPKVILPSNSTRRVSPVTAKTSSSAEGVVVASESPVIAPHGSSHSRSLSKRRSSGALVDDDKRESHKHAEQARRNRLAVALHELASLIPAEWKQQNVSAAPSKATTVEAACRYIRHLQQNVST

Sequence | relative binding free energy [kcal/mol]
GATGGCACGTGAATAT | 0.24
CGGGTCACGTGCGTTT | 0.11
GGAGTCACGTGAATAT | 0.47
TGACGCACGTGCGGGG | -0.18
TATGACACGTGTTCAG | 0.04
AGTGTCACGTGGATAA | 0.16
TATAGCACGTGGCGTA | -0.2
TTTATCACGTGTATCA | 0.01
TCAGTCACGTGTTTGA | -0.04
GTTAACACGTGAGTAT | 0.28
TGAAACACGTGTAGGC | 0.21
GGGATCACGTGGTTGC | 0.15
GGGCGCACGTGGTGTA | -0.19
GGAAGCACGTGGTTGG | -0.22
TCTGGCACGTGTTTTT | 0
AGGTTCACGTGTCTGA | 0.36
GGGATCACGTGTTTCG | 0.15
TCGGACACGTGGTTGT | 0.11
TACGTCACGTGTTATG | 0.11
TGCTACACGTGGTTAT | 0.1
TTTTACACGTGGGTTT | 0.01
GAAAGCACGTGTAGTA | 0.05
GCGTGCACGTGGATGG | -0.12
GGTGACACGTGTGGTT | 0.21
GGTCGCACGTGTTGTT | 0.09

Sequence | relative binding free energy [kcal/mol]
TAGGTCACGTGGATAT | 0.07
ACTTGCACGTGCGGGA | 0.11
GCTTGCACGTGTATAG | 0
TTTAGCACGTGCGGCG | -0.07
TAGAACACGTGAATGG | 0.37
ATGTGCACGTGGGGAG | -0.17
GGCCTCACGTGTTGTG | 0.09
TTGCGCACGTGTGTAG | -0.08
GGACACACGTGGATGT | 0.02
CGGGTCACGTGTGCGG | 0.12
AGGAGCACGTGGGGAT | -0.13
GTTGGCACGTGGATGG | -0.09
ACATGCACGTGGCGGT | -0.18
TTAATCACGTGCGGGT | 0.14
GAAGTCACGTGTATAG | 0.2
AGTTGCACGTGAGTGA | 0.04
TAAGGCACGTGGGTGA | -0.21
TATTTCACGTGGTACG | 0.11
CGATTCACGTGGTGTG | 0.19
TAGATCACGTGGATGT | 0.06
GGGAGCACGTGTAGAA | -0.06
ACATACACGTGGGGTT | -0.27
GGATTCACGTGTTATG | 0.23
AATTGCACGTGGGGAA | -0.01
TTGTGCACGTGCATTG | -0.15

Sequence | relative binding free energy [kcal/mol]
TGGTCCACGTGAAGTG | 0.29
GTTCGCACGTGGGAGA | 0.06
ACAGGCACGTGGAGGT | -0.18
GAGGACACGTGGGAGA | 0.1
GATATCACGTGGCGGG | 0.14
TTGCACACGTGTGAGT | 0.21
TTAGGCACGTGTGCAG | -0.15
AATCTCACGTGAGGTT | 0.47
GTGGTCACGTGAAGTA | 0.31
ATGTGCACGTGTAAAA | 0.14
CAGGTCACGTGGTGCT | 0.12
TAGTGCACGTGTGCTT | -0.03
TGGAGCACGTGATAAA | 0.21
ATACTCACGTGGTTGG | 0.16
GGTGTCACGTGCTTTC | 0.11
TGAAACACGTGGTTCT | 0.2
AGTATCACGTGCGGAT | 0.18
CAGTTCACGTGTAGCG | 0.33
TTTAACACGTGATGGG | 0.06
TCAGTCACGTGTAGCG | 0.24
TGAAGCACGTGGCGTA | -0.1
TGGTTCACGTGGTCTT | 0.25
GTTGTCACGTGATAGA | 0.28
GTAAACACGTGTAGTT | 0.14
TGTGGCACGTGCATGT | -0.1

Sequence | relative binding free energy [kcal/mol]
CATTGCACGTGGTGCG | -0.16
GTGGGCACGTGAAGGA | 0.14
AGGTACACGTGTCGTT | 0.2
GTATCCACGTGCGGTG | 0.07
CGAGTCACGTGGTTGG | 0.03
TATTGCACGTGCTGTA | -0.09
TAGAACACGTGTAATT | 0.17
CTAGGCACGTGTGATT | 0.03
GTGTTCACGTGTTGAA | 0.35
TATTCCACGTGTTAGT | 0.12
ATGATCACGTGGGAGC | 0
GTCATCACGTGGCGGG | 0.04
ATAGGCACGTGAGATG | 0.15
ATCATCACGTGCGGGG | 0.13
CTTAGCACGTGGGGTG | -0.16
ATTGGCACGTGTGCAT | -0.2
AGCAGCACGTGTATGG | -0.03
TGTGCCACGTGGCAGT | -0.27
TGGACCACGTGGTGCG | -0.1
TAAGTCACGTGTTGGC | -0.02
CTTAACACGTGGGTTT | -0.18
TTTAGCACGTGCGTGA | -0.18
TGTCGCACGTGTTCTT | 0.03
TGGGTCACGTGGGCTG | -0.03
ACTAGCACGTGGGGCT | -0.14

Sequence | relative binding free energy [kcal/mol]
GTGTGCACGTGTTTAC | -0.15
GATGGCACGTGGATGT | -0.12
GCGATCACGTGGTGTG | 0.13
GTGAACACGTGGGGTC | -0.05
CTGTTCACGTGCTTTT | 0.24
TTTCGCACGTGGTTAA | -0.16
GCAGTCACGTGGGTGT | -0.05
ATATACACGTGGTTGG | 0.02
AGGGCCACGTGTTGAA | -0.03
AAGGTCACGTGGTCAT | -0.05
GCGTGCACGTGTTGTA | 0.02
GTGGTCACGTGATGTC | 0.23
AGATTCACGTGGCATG | 0.13
TAATACACGTGTGGTG | -0.02
TTAAACACGTGTTGGA | 0.07
GCGGGCACGTGGGGAA | -0.22
TGATACACGTGAGGTG | 0.14
AGTTGCACGTGGAGGC | 0.03
GTTTACACGTGAAGAG | 0.29
CGAGTCACGTGATGTT | 0.23
CTTAGCACGTGATTGT | -0.04
AGATGCACGTGTGAAG | 0.07
TGGTACACGTGTTTCG | 0.13
TGAGCCACGTGAGAGG | 0.17
TGGCGCACGTGATAGG | 0.11

Sequence | relative binding free energy [kcal/mol]
GAAGTCACGTGTGCGT | 0.04
GTTATCACGTGGCGGC | 0.12
TTTTGCACGTGTATTC | 0.15
CGAGTCACGTGGGTGG | -0.01
TAGGGCACGTGCGTTT | -0.22
GGAGTCACGTGGGAGT | 0
GGAATCACGTGGTAGG | 0.19
TCCTGCACGTGAGGTG | 0.29
TGTAACACGTGTGTGA | -0.05
GTGTGCACGTGATTGA | 0.26
TGGATCACGTGTGCGA | 0.02
TTAGGCACGTGTTCTG | -0.24
CGGGCCACGTGTGTGT | -0.23
CATGGCACGTGCGGTG | -0.27
ATTAGCACGTGCAGTA | -0.12
TATTGCACGTGCTTAT | -0.07
TTGTTCACGTGAATGT | 0.37
GGGAGCACGTGGGTAA | -0.21
AGGTACACGTGTGCTA | 0.1
TTGTACACGTGGCAGT | -0.13
CTATACACGTGTTTGG | -0.06
